According to article PMC10668032:
The list shows a part of the results. At the low end of the ranking the order means little.

molecular target: SIX1 homeodomain (reference allele) (UniProt Q15475); assay: universal protein binding microarray; settings: Universal all-10-mer PBM (8x60K, AMADID 030236), 300 nM GST-tagged protein, Alexa Fluor 488 anti-GST; buffer, salt, pH and temperature not stated; high values mean tight binding; most listed sequences are background and not binding sites; double strand, one strand shown

Sequence	binding signal [E-score]
ATGCGATG	0.0231
CAACATTA	0.0239
AGATAGCC	0.247
GGGTATGA	0.27
GAAACTCC	-0.162
GCCCAACC	-0.131
CCTCAGCC	-0.114
CCACAGAA	0.00539
ACTAACAG	-0.0739
ACTGGAAC	-0.0238
GAACGTAA	-0.196
CTACCTAC	-0.0432
ATCTTCCA	0.196
GAGTGGTA	0.0692
CTGAATCA	-0.0898
AATGGAAG	-0.164
GGTACTAC	0.00522
CTCGGGGC	0.0208
CAATACTC	0.297
AACACAGA	-0.03
ACGCCCGT	-0.00709
ACGAACTA	-0.0513
ACTAGAGG	-0.141
CAACATTG	0.0129
TATGAATA	0.147

Sequence	binding signal [E-score]
GAGAGGAA	0.0169
CAGGATGA	0.183
CTTTATAA	-0.131
ATGGTCTA	-0.0839
GACGAGAA	-0.169
AAGGAAGC	-0.157
GCCGGAGC	-0.166
ACTGTTAC	-0.0513
CACAAATG	-0.217
GGTACTCA	0.158
CCTCGGCA	-0.0386
AAACTTCG	-0.254
GCAACCAA	-0.109
CGATAAAC	-0.257
ACTTAACG	-0.333
GGCCCCGA	0.0643
AGAAGTCA	-0.129
CCAGCTGA	0.0802
GCCCCCGA	-0.165
AAGATCGC	0.211
GTCACTGA	-0.0175
GGATTAGA	0.165
AGACTAAT	0.0454
TCACCCAA	0.0645
ATTGGACG	-0.202

Sequence	binding signal [E-score]
AGGCGCGA	-0.0917
GAATCGTC	-0.0328
CCATACGG	0.134
GTGCGGGA	0.0768
GGACGTAA	-0.37
CTTCCCAA	-0.133
AGTAGGGG	0.196
AAGGTGAA	-0.181
GGTTTCGA	0.172
CCGGTGCG	-0.063
ATAGCGAC	0.0808
ACGTCGTC	-0.132
GACTTTAC	-0.2
AGAAGCCG	-0.021
GAAATCGA	-0.171
ACAGATAG	0.208
ATTTACAC	0.0364
AAACTAGT	-0.0695
ATGGGACC	-0.102
CTCATCGC	0.0165
AGAAGTAC	0.0496
ATTTTGGA	-0.131
ATTGGTTC	-0.201
AAGAGTAT	0.277
ATACCGGC	0.319

Sequence	binding signal [E-score]
AACATTGA	-0.141
GGAACGAA	-0.237
ATGATTAC	-0.00046
CGGGCCCA	-0.155
AACCATAC	0.0509
CGACCACA	0.00725
AAATGCAG	-0.162
CCCGACAA	-0.113
AAATCACG	-0.277
CACACCTA	0.125
ACACTACA	0.0847
TCATAAGA	0.0505
CCAAAACC	0.0885
ACGATGGC	-0.12
AATAGATT	-0.0337
AATACAGG	0.12
AGGATTTA	-0.0644
ACGCCAAG	-0.153
GTACGGAA	-0.173
AGTGGTTC	-0.0795
AACCACGG	-0.146
CGATTATA	0.211
AGCTGCTC	-0.124
AGTTCGAA	-0.0995
CGTGCGCA	-0.206

Sequence	binding signal [E-score]
GGAAACGA	-0.111
AATTTTCG	-0.32
ATAAGGTG	0.113
CTAGGCTA	-0.144
AGGTCGAA	-0.0608
GGTATGCA	0.0612
GCGACCTA	-0.00545
CGAGTTCA	-0.129
AATGGATA	0.354
GCCTTGGA	-0.0531
CACGTCTA	0.00163
AGGCAATC	0.063
ATAGATTG	0.166
ACGATAAC	0.11
CGACTAAC	-0.217
CGGCTGCA	0.00566
AGCAGCCC	-0.123
AAGGTATG	0.201
CCCAGGAA	0.0245
ATCTGCGC	0.162
CTCTCTCC	0.0089
ATCGAGTG	0.0789
CAGTTAGC	-0.146
AAGCTAGT	-0.139
TACATTCA	-0.206

Sequence	binding signal [E-score]
CAGGTCAG	0.05
ACCCCGCA	0.139
AGACTGCA	-0.242
GCGCGATA	0.379
AGATCACG	0.306
ACGGGTAG	0.0448
GACACTAC	0.132
AACCATGT	-0.0387
CCTAGACA	-0.206
ATTGTTGA	0.0805
CCGATTCC	-0.0668
AGGGATAG	0.27
AGCCTTGC	-0.117
CTCAGAAG	-0.138
GTAGTTAA	0.0163
CCTCAGCA	-0.0194
GCCCTACC	-0.0381
ACACATAT	0.272
CATTGCCG	-0.228
AGCTCTCA	-0.0702
CAGTGGTA	0.101
ACGCCCAT	0.0376
GATGGTGA	0.00239
GGGGAGAA	-0.0164
AGGAGATA	0.331

Sequence	binding signal [E-score]
CCCGAAGC	0.0864
CAGCGCAG	-0.14
CTCAGGCC	-0.173
ATCATGTG	0.328
GTCATCCA	0.0713
GGCTTCAA	-0.162
TACTCCCA	0.162
CCCATGAA	0.0356
AATCGGTG	0.129
CGCCCCCA	-0.153
ATTCATAG	-0.0252
AGGCCGGG	-0.112
CGAACTAA	-0.145
CCCCCGGA	0.228
AAGTCAGT	-0.131
AACACACA	-0.0559
AGCTCGTC	-0.222
GATTATGC	0.265
ACCAACAG	0.0249
CTTCGGAA	-0.187
CCCTAGCA	0.0254
AACGTGTA	-0.129
GTGGAAAC	-0.284
CCAAGTGG	0.0554
ACATTAGA	-0.0395

Sequence	binding signal [E-score]
ATTCCATC	0.0721
CGAGGCAC	-0.018
CTGGCTCC	-0.159
ATCACTCG	0.269
AGTCCGAA	-0.127
AAGGTTGA	-0.167
AACATAAT	0.0691
GTGTTTGA	-0.029
AATAAGAT	0.0671
GTATCATA	0.471
CATCGGGG	0.0553
GGGGGGAA	-0.0515
TGATACAA	0.337
ATTCGAAG	-0.135
CTGGTGCA	-0.0842
CTGACCAC	-0.114
AGTTACTC	-0.133
AATGGACT	-0.374
AGGGCACA	-0.0128
AGGGGATC	0.426
CACAAGGA	-0.018
CACTCCAG	0.0773
CAACAATG	-0.125
AATTCCAT	-0.179
CAATCGGC	-0.052

Sequence	binding signal [E-score]
ACACGTTA	-0.145
CGATCTAG	0.158
AGCTAAGC	-0.29
ATGAAATG	-0.134
AAATAGTA	0.0508
ACCGGTTA	-0.0804
AACTCCGG	0.0002
CTGTCATC	0.0102
AGTATTAA	0.233
CCGCATAG	0.0244
CTCCCTTA	-0.101
TAGTTAAA	-0.0474
AGAGTTCC	-0.142
CTGGGAGA	0.12
AGTCGCCG	-0.183
AGTTAAGC	-0.179
ACTCTTAA	-0.254
GCAGTACA	-0.0521
ACAAAAAA	-0.331
TCACCAAA	-0.0555
CGCCGCTC	-0.219
CCTGTGTC	0.0393
TCTCTAAA	-0.0937
ATACGAGA	0.278
GGGTTTTA	-0.00462

Sequence	binding signal [E-score]
CTGCAAAG	-0.158
ACCCCTTG	0.151
AACTGCAG	-0.189
CGCTCGGA	0.0152
CATAGAAC	-0.043
GGCCAACC	0.000685
CACGCCAG	0.141
CATAGCCC	-0.144
AGACATGG	-0.0687
CGTTCTAA	-0.0136
ACGATCGG	0.169
CGCGCCTA	-0.0718
GAGAGCAA	-0.019
CCTTATGC	-0.069
ATCGATCC	0.389
ATCCCATC	0.297
GTACGCAA	-0.0828
AAATACTT	-0.0329
CGAGGAGC	-0.0273
ATTTCGTA	-0.106
CATGCCTC	-0.0904
ATGAATGC	0.0191
AGATTGAT	0.221
TAGCCCAA	-0.132
CGGTTCTC	-0.117

Sequence	binding signal [E-score]
AATGAGGT	-0.163
ACACCCGT	0.296
CATAGAAA	-0.121
CATTTCTA	-0.238
GATCACAA	0.31
GCAAATTA	-0.15
TAACACGA	0.19
AACCGGTA	0.073
AGTCCACC	-0.177
TCTTGGCA	-0.132
GATACTTA	0.401
CTTACCTC	-0.229
CCCAGAAA	-0.081
ATGGGAAG	0.0379
ACTGTGCG	-0.0925
ATTTTAGG	-0.149
ACAGTGGT	0.155
CGTTCAAC	-0.0311
CGTCACGC	-0.233
ACAACATC	-0.123
ACGAGCCT	-0.0268
AAATTTAT	-0.143
AGATAACA	-0.0399
CGTAGGTC	-0.0984
AGCATGAC	-0.158

Sequence	binding signal [E-score]
CAAGGCTA	-0.088
GTTAAGGA	-0.0526
AGCCGACA	-0.00148
GAGAACAA	-0.188
CGTGGAAA	0.0351
ATCTCTTG	0.224
CAACAAGC	-0.24
CTGACGTC	-0.0771
CAGTCCCC	-0.196
ACCATATC	0.418
AACCGCGT	-0.0438
ACTCTGAA	-0.109
GGGATGTA	0.179
AAGAGCAT	-0.055
AGGCTGGG	-0.0118
AATGCTAT	0.0612
GCAGTCCC	-0.218
AGCATGAA	-0.162
GGCTATAA	0.123
ACTGTCAT	0.00388
CAGTCCGG	0.000675
CCCAATCA	-0.163
GGCCACAA	-0.217
AATCAGTC	-0.192
CACCGGTC	0.111

Sequence	binding signal [E-score]
AGATACCC	0.468
CGAAATCG	-0.14
CAACGAGG	0.0724
AACCACGC	-0.156
CTAAAGAC	-0.293
AGTGATTG	-0.111
ATCGTAAG	-0.0305
GTCGTTGA	-0.00164
GAGGTCAA	-0.236
AAACCAAC	-0.337
CTCAACAC	0.121
CCAAGAGG	-0.121
CCCATTCA	-0.116
AGCTGACT	-0.197
CGACATAG	-0.146
ACACTGCA	0.0198
CACGTCAG	-0.0568
CGGTTCCC	-0.0878
AACTGTAT	0.101
GTTGCTGA	-0.146
TCAACGAA	-0.188
TCCGTACA	0.0666
AACACGAG	-0.0862
AGAGCAGA	-0.0762
CCGTATCC	0.438

Sequence	binding signal [E-score]
CGCTACAA	-0.148
AGGGGGTA	0.294
ACTCCCCA	-0.0768
CAATTGTA	-0.014
ATGCAGTA	0.0697
CCTCCAGG	-0.0847
CCGCAGGC	0.00386
AAAGTGCT	-0.3
AGCCATCC	-0.0445
GACCAAAC	-0.167
AGTAGGAG	-0.121
ACATATGC	-0.0816
AATAGTAA	-0.257
ATGATTAA	-0.0186
ACTAATGC	-0.0417
GTCGAATA	-0.0148
AATTTACC	0.0693
AGTCTCAC	0.0122
CCTGTTAG	-0.0306
